According to paper PMC4336329 (PLoS ONE, 2015):
The whole screen tested about 310,000 compounds, of which about 14,000 (4.5%) showed an effect of 50% or more. The effect is printed as a negative number. The list shows a part of the results.

These compounds were tested against human ether-à-go-go-related gene (hERG) potassium channel (human, UniProt Q12809) (assay: primary screen, population patch clamp on CHO cells stably expressing hERG).
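Note: peak tail current of the secondary pulse compared with the same well before compound.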

Chain of human ether-à-go-go-related gene (hERG) potassium channel (Q12809 whole entry, looked up): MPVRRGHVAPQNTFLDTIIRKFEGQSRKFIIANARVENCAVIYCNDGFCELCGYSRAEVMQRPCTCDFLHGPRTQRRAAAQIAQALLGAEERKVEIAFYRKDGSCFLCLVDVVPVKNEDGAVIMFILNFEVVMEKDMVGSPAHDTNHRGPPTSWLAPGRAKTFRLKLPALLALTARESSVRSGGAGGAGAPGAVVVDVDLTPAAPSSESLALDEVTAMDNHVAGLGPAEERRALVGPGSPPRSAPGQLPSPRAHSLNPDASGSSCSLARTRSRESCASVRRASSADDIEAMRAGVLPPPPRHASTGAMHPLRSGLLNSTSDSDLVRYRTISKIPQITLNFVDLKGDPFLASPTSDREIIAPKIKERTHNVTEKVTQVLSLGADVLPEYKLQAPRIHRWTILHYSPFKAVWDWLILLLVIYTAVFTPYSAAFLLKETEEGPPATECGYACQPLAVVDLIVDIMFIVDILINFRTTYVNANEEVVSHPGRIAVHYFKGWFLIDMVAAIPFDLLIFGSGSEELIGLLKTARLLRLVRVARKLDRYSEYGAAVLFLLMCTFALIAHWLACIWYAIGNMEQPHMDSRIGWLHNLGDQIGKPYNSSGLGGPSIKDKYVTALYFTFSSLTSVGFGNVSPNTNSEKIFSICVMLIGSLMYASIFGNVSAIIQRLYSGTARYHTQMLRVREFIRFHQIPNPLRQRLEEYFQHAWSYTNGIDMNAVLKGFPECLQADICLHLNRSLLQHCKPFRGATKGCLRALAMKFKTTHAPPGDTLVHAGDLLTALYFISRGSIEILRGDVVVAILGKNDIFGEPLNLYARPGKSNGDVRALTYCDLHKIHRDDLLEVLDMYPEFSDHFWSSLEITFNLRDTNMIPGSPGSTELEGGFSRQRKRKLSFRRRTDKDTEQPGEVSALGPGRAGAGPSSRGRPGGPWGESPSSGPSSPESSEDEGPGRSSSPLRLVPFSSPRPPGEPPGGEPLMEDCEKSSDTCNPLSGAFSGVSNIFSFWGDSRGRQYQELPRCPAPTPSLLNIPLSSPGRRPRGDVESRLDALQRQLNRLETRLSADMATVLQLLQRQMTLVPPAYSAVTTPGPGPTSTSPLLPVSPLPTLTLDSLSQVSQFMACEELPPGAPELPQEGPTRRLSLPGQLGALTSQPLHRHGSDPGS

Compound | hERG current change (%, negative = inhibition) at 10uM [%]
O=C(CN1CCN(S(=O)(=O)c2ccc(F)cc2)CC1)Nc1ccccc1F | -56.1
c1ccc(-c2cc(-c3ccccc3)on2)cc1 | -12.9
COc1cc2c(cc1O)CC[n+]1cc3c(OC)c(OC)ccc3cc1-2 | -5.85
Cc1ccc(NC(C)C(=O)N/N=C/c2c[nH]c3ccccc23)cc1 (stereo not drawn) | 2.52
CCOc1ccccc1N1CCN(CC(=O)Nc2cc(C)on2)CC1 | 11.1
O=C(Cc1ccc(-n2cccc2)cc1)N1CCN(c2ccccc2F)CC1 | -15.3
Cc1ccn(CCC(=O)NC2CC(C)(C)Cc3c2cnn3-c2ccccc2C)n1 (stereo not drawn) | -25.6
COc1ccc(NC(C)C(=O)Nc2ccc(C(C)(C)C)cc2)cc1Cl (stereo not drawn) | -5.69
O=C1CCCC(=O)C1=C1SCCCS1 | -5.96
N#C/C(=C\Nc1ccc(Cl)cc1)S(=O)(=O)c1ccccn1 | -18.5
Nc1c(-c2ccccc2)n[nH]c1-c1ccccc1 | -3.82
COc1cccc(CNC(=O)Cn2nc(C)c([N+](=O)[O-])c2C)c1 | 2.44
CCOn1c(=O)c(-c2cccc([N+](=O)[O-])c2)[n+]([O-])c2ccccc21 | 0.859
O=C(CSc1nccc(-c2cccs2)n1)Nc1ccccc1 | 12.2
COc1cc2sc3ccc(-c4ccc(N(C)C)nc4)cc3c(=O)c2cc1OC | 10.4
CCNc1nc(NC(N)=S)nc(NC(C)(C)C)n1 | 9.07
CCOC(=O)C1CCN(c2c(N3CCN(Cc4ccccc4)CC3)c(=O)c2=O)CC1 | -73.4
CCCCn1nnc(NC(=S)NC(=O)c2cccs2)n1 | 9.16
CCCc1nnc(NC(=O)CC(=O)OCC)s1 | -8.41
Cc1ccc(Nc2nnc(C)c(=O)[nH]2)cc1 | 0.721
CCOC(=O)/C(C#N)=C/c1c(Oc2cccc(C)c2)nc2ccccn2c1=O | -46.8
CCCCn1c(O)c(/C(CC)=N/N2CCCCC2c2cccnc2)c(=O)[nH]c1=S (stereo not drawn) | -27

Compound | hERG current change (%, negative = inhibition) at 10uM [%]
Cc1ccc(S(=O)(=O)/C(C#N)=C/c2c(N3CCC(C(N)=O)CC3)nc3c(C)cccn3c2=O)cc1 | -71.4
Nc1ccn(Cc2ccccc2F)n1 | 14.7
Cc1cc(C)n2nc(SC(C)C(=O)Nc3ccc(Cl)cn3)nc2n1 (stereo not drawn) | -4.34
Cc1coc2cc3oc(=O)c(CCC(=O)N[C@@H](CCCNC(N)=O)C(=O)O)c(C)c3cc12 | 15.1
O=C(Nc1nc2nccc(-c3ccccc3)n2n1)C(Cl)(Cl)Cl | -2.26
C/C(=N\NC(=O)c1ccccc1)c1cccc(Br)c1 | -0.446
CCCCN(C)Cc1c(C)[nH]c2ccc(OCC)cc2c1=O | -39.9
O=C(Nc1ccccn1)c1ccc(S(=O)(=O)N2CCCC2)cc1 | -5.31
CCc1cc(=O)oc2cc(OC(C)C(=O)NCC3CCC(C(=O)O)CC3)c(Cl)cc12 (stereo not drawn) | 16.1
COC(=O)C1=C[C@@H](C(=O)OC)[C@@H]2C3=C(C(=O)[C@]2(C)NC(=O)c2ccccc2)[C@H](C)n2c(=O)n(-c4ccccc4)c(=O)n2[C@@H]3C1 | 7.6
COc1ccc(N(CC(=O)N/N=C/c2cccs2)S(=O)(=O)c2ccc(OC)c(OC)c2)cc1 | -44.3
COc1ccc(NC(=O)CSCC(=O)Nc2cc(Cl)ccc2N2CCOCC2)cc1 | -14
CC(C)N(C(=O)CO/N=C/c1cccc([N+](=O)[O-])c1)C(C)C | -23.2
CC(C)(c1ccccc1)c1ccc(OCCCNCCO)cc1.O=C(O)C(=O)O | -35.2
O=C(N/N=C/c1ccc([N+](=O)[O-])cc1)c1ccc(COc2ccccc2-c2ccccc2)cc1 | 11.5
O=C1CN(Cc2ccccc2)C(=NCc2ccco2)S1 | -29.8
CCOC(=O)Cc1cc(=O)n2[nH]c(-c3ccc(C)cc3)cc2n1 | 1.37
COc1cccc(Nc2nc3cc(OC)ccc3cc2C#N)c1 | 26.1
COCCOC(=O)c1c(C)nc(SCC(=O)Nc2ccc(OC)cc2)c(C#N)c1-c1ccco1 | 1.07
CCOC(=O)C1CCN(C(=O)c2cccc(S(=O)(=O)NCc3ccccc3)c2)CC1 | -25.7
O=C(Nc1ccccc1-c1nnc(SCc2ccc(Cl)cc2)o1)c1ccccc1 | 14.1
COc1ccccc1NC(=O)c1c(O)c2ccccc2[nH]c1=O | 7.31

Compound | hERG current change (%, negative = inhibition) at 10uM [%]
Cc1nn(Cc2ccc(C(=O)Nc3ccc(C(=O)OC(C)C)cc3)o2)c(C)c1Cl | 6.74
O=C(Cn1c(=O)cnc2ccccc21)NC1CCC(O)CC1 (stereo not drawn) | 6.42
O=C(NC(=S)NNC(=O)c1cc2ccccc2cc1O)c1ccco1 | 11.5
COC(=O)CC1Oc2ccc(C)cc2NC1=O (stereo not drawn) | 1.24
CCOC(=O)[C@@H]1[C@H]2COc3ccc(Br)cc3[C@@H]2N2C(=O)N(c3ccc(C)cc3)C(=O)[C@]12C | 5.6
Cc1ccc(/C=N\NC(=O)CCc2n[nH]c(=O)[nH]c2=O)o1 | 11.4
CC[C@]1(c2ccccc2OC)C(=O)N(C(=O)OC)N1C(=O)OC | 19.1
c1cncc(-c2nc3cc4ccccc4cc3[nH]2)c1 | 4.21
COCCCn1c(=O)c2sccc2n(Cc2ccccc2)c1=O | 8.42
COc1ccc(C(=O)CSc2nnc(Cn3cnc4ccccc43)o2)cc1 | -4.26
CCSc1cc(N2CCCC2)nc(-c2ccccc2Cl)n1 | -6.87
Cc1c(OCc2ccc(C(=O)O)o2)ccc2c3c(c(=O)oc12)CCC3 | 11.8
Cc1c(NC(=O)c2c(F)c(F)c(F)c(F)c2F)c(=O)n(-c2ccccc2)n1C | 10.6
Cc1noc(C)c1S(=O)(=O)Nc1ccc(C(=O)N2CCN(c3ccc(Cl)cc3)CC2)cc1 | 3.1
O=S(=O)(Nc1ccc(N=Nc2ccc(O)c3ccccc23)cc1)c1ccccc1 | 13
Cc1ccc(S(=O)(=O)N(CC(=O)N/N=C/c2ccc(F)cc2)c2cccc3cccnc23)cc1 | 8.97
Cc1ccc(-c2[nH]c(-c3ccccc3)nc2SCC(=O)NCC2CCCO2)cc1 (stereo not drawn) | -9.26
COc1ccc(CCN2CC(C(=O)NCCc3ccc(C)cc3)CC2=O)cc1OC (stereo not drawn) | 6.69
Cc1nnc(SCCCn2c(N3CCCCC3)nc3c2c(=O)[nH]c(=O)n3C)s1 | -12.3
Cn1cc(Cl)c(C(=O)N/N=C/c2ccc3c4c(cccc24)CC3)n1 | 17.1
Cc1ccc2nc(C)/c(=N\O)c(C)nc2c1 | 0.558
O=c1ccc2ccccc2n1Cc1cccc(F)c1 | 9.61

Compound | hERG current change (%, negative = inhibition) at 10uM [%]
O=C(Nc1ccccc1)Nc1nnc(/C=C/c2ccccc2Cl)s1 | 12.4
O=C(O)C1=C[C@@H](c2ccc(Br)cc2)C[C@@H](OCCCCO)O1 | 10.9
OC1(Cc2ccccc2)CCNCC1 | 19.6
COc1ccc(NC(=O)CS(=O)CC(=O)Nc2ccc(-n3cnnn3)c(C)c2)cc1 (stereo not drawn) | 12.4
Cc1nc(Cl)sc1C(=O)Nc1ccc(Cl)cc1 | -14.6
COc1ccc(CCNC(=O)COC(=O)c2cc(S(=O)(=O)N3CCCC3)ccc2O)cc1 | -11.4
CCCCCc1ccc(OCCCC[n+]2ccccc2)c(CCCCC)c1.[Cl-] | -66.4
CCOC(=O)C1CCCN(C(=O)c2cccc(S(=O)(=O)N3CCCC3)c2)C1 (stereo not drawn) | 8.94
CCCCC1=CC2=CC(=O)C(C)(OC(=O)CC)C(=O)C2=CN1C1CCCCC1 (stereo not drawn) | -38
C/C(=N\NS(=O)(=O)c1ccc([N+](=O)[O-])cc1)c1cccs1 | 17.4
O=C(OCC(=O)N1CCN(C(=O)c2ccco2)CC1)c1ccccc1OCc1ccc(Cl)cc1 | -35.3
O=C(Oc1cc(=O)oc2ccccc12)c1ccccc1 | 1.76
Cc1n(CC(O)COCc2ccccc2)c2ccccc2[n+]1C.[I-] (stereo not drawn) | 13.9
CCC(=O)NCCc1cc2ccc(C)c(C)c2[nH]c1=O | -1.57
O=C1NC2(NN1c1ccccc1)C1CC3CC(C1)CC2C3 (stereo not drawn) | 3.59
COc1ccc(OCC(=O)N/N=c2\oc3c(OC)cccc3cc2C(N)=O)cc1 | -2.87
Cc1ccc(NC(=O)CSc2nnc(-c3cnccn3)n2-c2ccccc2)cc1 | 11.2
Cl.O=C(CCN1Cc2ccccc2C1)c1ccc2c(c1)OCCO2 | -8.74
CSCCC(NC(=O)c1cccc([N+](=O)[O-])c1)C(=O)OCC(=O)N1CCCC1=O (stereo not drawn) | 2.82
CN(C(=O)c1ccccc1C(=O)OCC(=O)NC(=O)NC(C)(C)C)C1CCCCC1 | 5.3
Cc1nnc(SCC(=O)Nc2nonc2C)s1 | 7.25
